# PubChem BioAssay AID1347120 (National Center for Advancing Translational Sciences (NCATS), 2019)
# The whole screen tested about 390,000 compounds, of which about 930 (0.24%) were called active. The inconclusive results got no clear call from the source; some entries with a clear call stand among them for comparison. Calls come from the whole dose curve; as a rule, active = well fitted activation curve with a large enough effect; inconclusive = small, poorly fitted or top-dose-only effect; inactive = no such curve, though single readings can be large or run the other way. Potencies of inconclusive entries are doubtful fits and often do not repeat.
# Assay: qHTS for Suppressors of FUS Proteinopathy: Primary screen using FUS-linked yeast assay; note: nearly all actives have a fitted effect of over 55% in size;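 for growth rescue (activation): plate controls were DMSO vehicle for no effect and reference control for full effect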
# Settings: S. cerevisiae FUS-expressing, OD600, 24 h; Potency: growth rescue; growth rescue (activation): at 76.6 µM (top of the series)
# Procedure, shortened: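 Galactose (2%) drives FUS expression in yeast precultured in raffinose; seeding density OD 0.005. Test compounds incubated 24hr at 30C and 99% humidity before absorbance at 600 nm was measured.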
# Potency is the fitted concentration of half-maximal effect; tags give direction and shape of the fitted curve.
Structure (SMILES),Potency,growth rescue (activation)
Cc1ccccc1OCc1nnc(SCc2cc(=O)c3ccccc3[nH]2)n1C,"inconclusive: 11.2 µM [activator, partial curve, poor fit]",
Cc1cccc(NC(=O)CCNS(=O)(=O)c2ccc(Cl)cc2)c1,"inconclusive: 31.6 µM [activator, single point]",
C=CCOc1ccc(C2/C(=C(\O)c3ccc4c(c3)CC(C)O4)C(=O)C(=O)N2CCN2CCOCC2)cc1OCC (stereo not drawn),"inconclusive: 25.1 µM [activator, partial curve, poor fit]",
CCOC(=O)C1=C[C@@H](c2ccccc2)N(S(=O)(=O)c2ccc(C)cc2)[C@H]1c1ccc(OC)cc1,"inconclusive: 28.2 µM [activator, single point]",
CCCCCCSc1cc(-c2nc3cc(C)ccn3c2NC2CCCCC2)ccc1OC,"inconclusive: 15.8 µM [activator, partial curve, poor fit]",
O=C(COC(=O)c1ccc2ncsc2c1)NCc1ccc(F)cc1,inactive,
CC(C)(C)c1ccc(S(=O)(=O)N2CCC(c3cn4ccccc4n3)CC2)cc1,"inconclusive: 31.6 µM [activator, partial curve]",
COc1ccc2c(c1)CC[C@@H]1[C@@H]2CC[C@]2(C)[C@@H](C(=O)O)C[C@@H]12,inactive,
CCCNC(=O)C1CCN(S(=O)(=O)c2ccc3c(c2)CCCN3C(C)=O)CC1,inactive,
COc1ccc(/C(C)=N/NC(=O)c2ccc(CSc3cccc4cccnc34)cc2)cc1OC,"inconclusive: 50.1 µM [activator, single point]",
O=C(Nc1cccc(C(=O)N2CCN(c3ccc(Cl)cc3)CC2)c1)c1nsc2ccccc12,"inconclusive: 12.6 µM [activator, partial curve]",
CCCC1Cc2c(sc3nc(SC)nc(N)c23)CO1 (stereo not drawn),inactive,
COc1ccc(/C=N\NC(=O)c2ccccc2F)cc1COc1ccc(F)cc1F,inactive,
Cc1cccc(C)c1-n1nnnc1C1(C)CCC(=O)N1C1CC1 (stereo not drawn),inactive,
CCCC(C(=O)NC(C)(C)C)N(Cc1ccccc1Cl)C(=O)c1snc(C(N)=O)c1N (stereo not drawn),"inconclusive: 44.7 µM [activator, single point]",
CCOC(=O)N1CCN(C(=O)C[C@H]2C[C@@]3(C(=O)OC)C(=C[C@H](COCc4ccccc4)O[C@@H]3C)N(Cc3cccc4ccccc34)C2=O)CC1,active: 22.4 µM,
NC(=O)C1CCN(c2nc(-c3ccc4occc(=O)c4c3)cs2)CC1,"inconclusive: 25.1 µM [activator, single point]",
Cc1c(-c2nc(N)nc(Nc3ccccc3)n2)oc2ccccc12,inactive,
CCOC(=O)/C(=N\Nc1ccc(OC)cc1)c1csc(Nc2ccccc2)n1,inactive,
CC(C)(C)c1ccc2c(c1)OC(C(=O)N/N=C\c1ccncc1)CO2 (stereo not drawn),inactive,
CC1(Cc2ccccc2OC(F)(F)F)C(=O)Nc2ccc(OC(F)(F)F)cc21 (stereo not drawn),inactive,

Structure (SMILES),Potency,growth rescue (activation)
Cc1cc(C)c(OCC(=O)Nc2cccc(NC(=O)c3ccco3)c2)c(Br)c1,"inconclusive: 39.8 µM [activator, single point]",
COc1cc(OC)c(C(=O)Nc2ncn[nH]2)cc1OC,inactive,
CCOc1ccc(Nc2nc(Cc3nnc(SCC(=O)NC4CCCCC4)n3C)cs2)cc1,"inconclusive: 28.2 µM [activator, partial curve, poor fit]",
Cc1cc(N2CCCCC2)nc2ccc(NC(=O)/C=C/c3ccccc3OC(C)C)cc12,"inconclusive: 8.91 µM [activator, single point]",
O=C(c1cc(-c2ccccc2)n[nH]1)N1CCc2c([nH]c3ccccc23)C1c1ccccn1 (stereo not drawn),"inconclusive: 22.4 µM [activator, single point]",
CCOc1ccc(-c2nc(CSCC(=O)N3CCN(c4cccc(OC)c4)CC3)c(C)o2)cc1,"inconclusive: 28.2 µM [activator, single point]",
O=C(Nc1c(-c2ccc3c(c2)OCO3)[nH][nH]c1=O)c1ccccc1,inactive,
Cc1cccc(CSc2cn(CC(=O)N3CCCC3)c3ccccc23)c1,"inconclusive: 50.1 µM [activator, single point]",
Oc1ccc(Cl)cc1C1=Nc2ccccc2N=C(c2cccc(Br)c2)C1,inactive,
C[C@H]1CN([C@@H](C)CO)S(=O)(=O)c2ccc(Br)cc2O[C@@H]1CN(C)S(=O)(=O)c1ccccc1,"inconclusive: 22.4 µM [activator, single point]",
CCOc1ccc(CC(=O)NNC(=S)Nc2ccccc2)cc1Br,"inconclusive: 50.1 µM [activator, single point]",
O=[N+]([O-])c1cccnc1Sc1ccc(Br)cc1,inactive,
CCCNC(=O)c1ccc(N2CCC3(CC2)CC(c2cccc(Br)c2)=NO3)c(N)c1,"inconclusive: 28.2 µM [activator, single point]",
CN(C(=O)c1ccc(NC(=O)Cc2ccc(NC(=O)C3CCCN(C(=O)CCc4ccccc4)C3)cc2)cc1)C1CC1 (stereo not drawn),"inconclusive: 31.6 µM [activator, single point]",
COc1ccc(C(=O)C[C@@H]2OC[C@H](Cc3ccccc3)N2S(=O)(=O)c2ccc(C)cc2)cc1OC,"inconclusive: 11.2 µM [activator, partial curve]",
CCOC(=O)c1cc(S(=O)(=O)NCc2ccc3c(c2)OCO3)cn1C,inactive,
O=C(Cn1cc(SCc2ccc(C(F)(F)F)cc2)c2ccccc21)N1CCCC1,"inconclusive: 50.1 µM [activator, single point]",
CCCCN(C)C(=O)c1sc(=O)n(Cc2cc(Cl)ccc2OC)c1C,inactive,
O=C(NCc1nc2ccccc2[nH]1)C1=C[C@H](c2ccc3c(c2)OCO3)C[C@H](OCc2ccc(CO)cc2)O1,"inconclusive: 35.5 µM [activator, single point]",
Cc1cc(C)c(C#N)c(SCc2[nH]nc3c2C(c2ccc(F)cc2)C(C#N)=C(N)O3)n1 (stereo not drawn),inactive,
COc1ccc(NC(=O)CSc2oc(-c3ccco3)nc2S(=O)(=O)c2ccc(Br)cc2)c(OC)c1,"inconclusive: 20 µM [activator, partial curve, poor fit]",

Structure (SMILES),Potency,growth rescue (activation)
O=C(C1=C[C@H](c2ccc3c(c2)OCO3)C[C@H](OCCCCO)O1)N1CCN(Cc2ccccc2)CC1,inactive,
COc1ccc([C@H]2[C@H](C(=O)C(C)(C)C)N3N=Cc4ccccc4C3[C@]23N=C(c2ccccc2)OC3=O)cc1 (stereo partly drawn),"inconclusive: 50.1 µM [activator, single point]",
O=c1[nH]c(C2CCN(S(=O)(=O)c3ccccc3)CC2)nc2c1nnn2Cc1ccc2c(c1)OCCO2,"inconclusive: 10 µM [activator, partial curve, poor fit]",
O=C(Cn1nnc(-c2ccccc2)n1)OCc1csc(-c2ccccc2)n1,inactive,
Cc1ccc(CN2CCCN(Cc3cc(C)ccc3C)S2(=O)=O)cc1,"inconclusive: 44.7 µM [activator, single point]",
CCOc1ccccc1N1CC(C(=O)Nc2cccc(S(=O)(=O)N3CCCCC3)c2)CC1=O (stereo not drawn),"inconclusive: 39.8 µM [activator, partial curve, poor fit]",
Cc1ccc2cc(CN(Cc3ccco3)C(=O)NC3CCCCC3)c(=O)[nH]c2c1C,"inconclusive: 50.1 µM [activator, partial curve, poor fit]",
Cc1sc2nc(CSC(C)C(=O)Nc3cc(S(C)(=O)=O)ccc3Cl)[nH]c(=O)c2c1C (stereo not drawn),"inconclusive: 39.8 µM [activator, single point]",
CC(=O)c1ccc(NC(=O)CSc2cn(CC(=O)N3CCCCCC3)c3ccccc23)cc1,"inconclusive: 39.8 µM [activator, single point]",
C=C(c1cccc2ccccc12)P(=O)(O)O,"inconclusive: 5.01 µM [activator, single point]",
O=C(CSc1nnc2scc(-c3ccccc3)n12)NCc1ccc2c(c1)OCO2,"inconclusive: 22.4 µM [activator, partial curve, poor fit]",
CCCCCCCCN1C(=O)[C@H](CC(=O)NCCc2ccccc2OC)C[C@@]2(C(=O)OC)CC(C)(C)CC=C12,inactive,
Cc1ccc(CN(C)c2nc(-c3cccnc3)nc3ccccc23)o1,"inconclusive: 28.2 µM [activator, partial curve, poor fit]",
COc1ccccc1N1CCN(C(=O)CSc2nc3ccccc3nc2N2CCC(C)CC2)CC1,"inconclusive: 28.2 µM [activator, single point]",
COC(=O)c1sc2nc(C)nc(SCC(=O)Nc3sccc3C(N)=O)c2c1C,"inconclusive: 31.6 µM [activator, single point]",
COCOCCn1cc(CN2CCS(=O)(=O)N(Cc3ccc(-c4ccc(Cl)c(Cl)c4)cc3)C(C(C)C)C2=O)nn1 (stereo not drawn),"inconclusive: 20 µM [activator, partial curve, poor fit]",
CN(C(=O)COc1ncnc2ccccc12)C1CCCCC1,inactive,
CC(C)CN(C(=O)CSc1nc(-c2ccccc2)cn1N)c1c(N)n(Cc2ccccc2)c(=O)[nH]c1=O,"inconclusive: 22.4 µM [activator, partial curve, poor fit]",
O=C(NCCc1ccccc1)C(=O)N/N=C/c1ccc2c(c1)OCO2,,inconclusive: 30.2% [activator]
CC(=O)Nc1ccc(-c2csc(NC(=O)C3CC(=O)N(c4ccc5c(c4)OCCO5)C3)n2)cc1 (stereo not drawn),"inconclusive: 28.2 µM [activator, single point]",
CC(=O)c1cc(C(=O)Nc2cc(C)cc(C)c2)c2ccccn12,inactive,
